Laboratory results: PubChem BioAssay AID624417 (National Center for Advancing Translational Sciences (NCATS), 2012)
In all, about 410,000 compounds went through this assay and about 6,400 (1.6%) were called active. The shares of active, inactive and inconclusive entries below differ from those in the screen. The call rests on the fitted dose curve; in most records, active means well fitted inhibition curve with a large enough effect; inconclusive means small, poorly fitted or top-dose-only effect; inactive means no such curve, though single readings can be large or run the other way. No potency is given beside an inconclusive call; the fits are too rough.

molecular target: Glucagon-like peptide 1 receptor (Homo sapiens) (UniProt P43220); assay: qHTS of GLP-1 Receptor Inverse Agonists (Inhibition Mode); settings: HEK293 GLP-1R CRE-luciferase, luminescence, 24 h, GLP-1R form is constitutively active; activity change, negative = inhibition: at 38.3 µM (top of the series) unless noted; further: nearly all actives have a fitted effect of over 55% in size
Procedure, shortened: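 Cells are plated, allowed 12 hours at 37 deg C, then treated with compounds for 24 hr before luciferase detection reagent is added and luminescence is read after 12 min at room temperature. The HEK293 line carries constitutively active GLP-1R with a cAMP-responsive reporter.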
On the % scale 0 is the no-effect control and ±100 the full control effect; potency means the concentration at half of the fitted maximal effect; tags describe the fitted curve by direction and shape.

Sequence of UniProt P43220 (P43220 whole entry, looked up): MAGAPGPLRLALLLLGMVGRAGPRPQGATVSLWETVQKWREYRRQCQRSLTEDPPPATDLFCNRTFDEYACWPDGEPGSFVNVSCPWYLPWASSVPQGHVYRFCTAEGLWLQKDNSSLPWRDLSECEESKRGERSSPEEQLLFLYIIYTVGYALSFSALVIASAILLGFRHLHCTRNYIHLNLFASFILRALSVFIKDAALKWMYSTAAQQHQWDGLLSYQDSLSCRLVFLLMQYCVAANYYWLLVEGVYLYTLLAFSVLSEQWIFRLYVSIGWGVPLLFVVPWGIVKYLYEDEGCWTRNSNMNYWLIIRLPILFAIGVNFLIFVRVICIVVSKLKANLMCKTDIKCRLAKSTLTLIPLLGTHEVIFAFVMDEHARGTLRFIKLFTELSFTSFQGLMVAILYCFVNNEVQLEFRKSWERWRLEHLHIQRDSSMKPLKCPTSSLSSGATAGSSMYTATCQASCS

| Compound | activity change, negative = inhibition | Potency |
| --- | --- | --- |
| CCN(C(=O)CN1C(=O)/C(=C/c2ccccc2F)SC1=S)C1CCS(=O)(=O)C1 (centres undefined) | inactive: 10.6% | – |
| O=C(NNc1ccccc1)c1ccc(Cl)c(Cl)c1 | – | inconclusive [inhibitor, full curve, poor fit] |
| CC(c1ccccc1)C1CC(=O)N(Cc2ccco2)C1=O (centres undefined) | inactive: 0.803% | – |
| COCCNC(=O)C(=O)Nc1ccc2c(c1)N(S(=O)(=O)c1cccs1)CCC2 | – | inconclusive [inhibitor, full curve, poor fit] |
| Cc1ccc(CNC(=S)NC2CCCCC2)cc1 | – | inconclusive [inhibitor, single point] |
| COc1ccc(Nc2cc(Sc3ccc(OC)cc3)ncn2)cc1 | – | inconclusive [inhibitor, partial curve, poor fit] |
| CC(C)CC1NC(=S)N(C2CCCCC2)C1=O (centres undefined) | – | inconclusive [inhibitor, single point] |
| CCCCOC(=O)Nc1ccc(C)c(Cl)c1 | – | inconclusive [inhibitor, partial curve] |
| CC(C)CNC(=O)CCSc1nc(-c2ccc3c(c2)OCO3)cc(C(F)(F)F)n1 | inactive: 19.3% | – |
| O=C(CCN1C(=O)/C(=C\c2ccccc2)SC1=S)NCCCN1CCOCC1 | – | inconclusive [inhibitor, partial curve, poor fit] |
| COC(=O)C1=CN(C(C)C)C=C(C(=O)OC)C1c1cc(Br)c(OC)c(OC)c1 | inactive: -8.01% | – |
| CCc1ccc(NC(=O)CC2C(=O)OCCN2CC)cc1 (centres undefined) | inactive: 3.06% | – |
| Cc1cc(C)c(C(=O)CC(=O)c2ccccc2Cl)c(O)c1 | – | inconclusive [inhibitor, single point] |
| CCOc1ccccc1NC(=O)C(CC(C)C)NS(=O)(=O)c1ccc2c(c1)CCN2C(C)=O (centres undefined) | inactive: -4.92% | – |
| CCCCCCCCCCS(=O)(=O)N/N=C/c1ccccc1OC | – | inconclusive [inhibitor, single point] |
| CCOC(=O)c1ccc(N2C(=O)c3n[nH]c(-c4cccs4)c3C2c2cccc(F)c2)cc1 (centres undefined) | – | inconclusive [inhibitor, partial curve, poor fit] |
| CCc1ccc(CNC(=O)C2CCCN(S(=O)(=O)N(CC)c3ccccc3)C2)cc1 (centres undefined) | – | inconclusive [inhibitor, partial curve, poor fit] |
| CN(C)c1ccc(C(CNC(=O)c2ccc(F)cc2)c2c[nH]c3ccccc23)cc1 (centres undefined) | – | inconclusive [inhibitor, partial curve, poor fit] |
| Cc1cc(C)c2sc(N(CCN(C)C)C(=O)c3ccc4ccccc4c3)nc2c1 | – | inconclusive [inhibitor, partial curve, poor fit] |
| O=C(c1cccc(C(F)(F)F)c1)C1CCCN(Cc2cccc(OCCO)c2)C1 (centres undefined) | – | inconclusive [inhibitor, single point] |
| O=C(Nc1ccccc1)N1CCc2ccccc21 | inactive: -22.9% | – |
| COc1ccc(C(=O)COC(=O)c2n[nH]c3ccccc23)c(OC)c1 | – | inconclusive [inhibitor, single point] |

| Compound | activity change, negative = inhibition | Potency |
| --- | --- | --- |
| COC(=O)CSc1nc2c(cnn2-c2ccc(F)cc2)c(=O)[nH]1 | – | inactive |
| COCCNC(=O)c1c(N)n(CCCn2ccnc2)c2nc3ccccc3nc12 | inactive: 9.63% | – |
| CCC(Sc1nc2ccccc2o1)C(=O)Nc1nnc(C)s1 (centres undefined) | – | inconclusive [inhibitor, single point] |
| CCOc1ccc(N(c2nc(-c3ccc(OC)c(OC)c3)no2)c2nc(-c3ccc(OC)c(OC)c3)no2)cc1 | inactive: 0.119% | – |
| O=C(CSc1cccc[n+]1[O-])c1ccccc1Br | – | inconclusive [inhibitor, full curve, poor fit] |
| COc1ccc(CN(C)C2c3ccccc3-c3ccccc32)cc1 | – | inconclusive [inhibitor, partial curve, poor fit] |
| COc1ccccc1N(CC(=O)NCCSCc1ccccc1Cl)S(C)(=O)=O | – | inconclusive [inhibitor, partial curve, poor fit] |
| COc1cccc(NC(=O)C2CCN(S(=O)(=O)c3ccc4c(c3)NC(=O)CO4)CC2)c1 | inactive: -20.1% | – |
| O=S(=O)(NC1CCc2ccccc21)c1ccccc1 (centres undefined) | – | inconclusive [inhibitor, single point] |
| CC(C)(C)OC(=O)[C@H](Cc1ccccc1)NC(=O)c1[nH]cnc1C(=O)Nc1ccccc1F | – | inconclusive [inhibitor, partial curve, poor fit] |
| COc1ccc(C(=O)O/N=C(\N)Cc2ccc(Cl)cc2)cc1OC | – | active: 7.94 µM |
| CC1CC1C(=O)Nc1nc(-c2ccc(Cl)s2)cs1 (centres undefined) | – | inconclusive [inhibitor, partial curve] |
| Cc1ccc(C2C(C(=O)c3cc4ccccc4o3)=C(O)C(=O)N2CCN2CCOCC2)o1 (centres undefined) | inactive: 48.1% | – |
| c1ccc2c(-c3cc(C4CCNCC4)[nH]n3)cccc2c1 | – | inconclusive [inhibitor, partial curve, poor fit] |
| CCOc1ccc(/C=N/NC(=O)c2cc3ccccc3cc2OC)cc1 | – | inconclusive [inhibitor, partial curve] |
| CC1CCCC(C)N1C(=O)COC(=O)c1cccc(S(=O)(=O)N(C)c2ccccc2)c1 (centres undefined) | – | inconclusive [inhibitor, partial curve, poor fit] |
| Cc1cc2nc(C3CCCN(C(=S)Nc4ccccc4C)C3)[nH]c2cc1C (centres undefined) | – | inconclusive [inhibitor, partial curve, poor fit] |
| CS(=O)(=O)N(CC(=O)NCc1ccc2c(c1)OCO2)Cc1ccc(Cl)cc1 | – | inconclusive [inhibitor, partial curve] |
| Cc1cccc(CSc2cn(CC(=O)N3CCCCC3)c3ccccc23)c1 | inactive: -1.56% | – |
| O=C(Cn1cc(SCc2cccc(F)c2)c2ccccc21)N1CCOCC1 | – | inconclusive [inhibitor, single point] |
| CCCC(=O)OC1=CN(Cc2ccccc2)S(=O)(=O)c2ccccc21 | inactive: -32.7% | – |
| CC1=CC(C)C(/C=N/N=C(N)N)C(C)C1 (centres undefined) | – | active: 8.91 µM |
